Results as given in patent US20240317847A1 (Bayer, published 2024).

Tests used:
rat IL-11 [1] = target: T1, rat IL-11 (rat, UniProt Q99MF5 22-199); assay: cell-based or functional assay
T1 sequence: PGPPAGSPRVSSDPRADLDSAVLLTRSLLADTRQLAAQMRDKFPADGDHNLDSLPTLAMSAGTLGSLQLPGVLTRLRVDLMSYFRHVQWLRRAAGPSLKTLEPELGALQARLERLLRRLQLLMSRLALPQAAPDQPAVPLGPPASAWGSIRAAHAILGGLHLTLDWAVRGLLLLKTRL

human IL-11 [2] = target: T2, human IL-11 (human, UniProt P20809 22-199); assay: cell-based or functional assay
T2 sequence: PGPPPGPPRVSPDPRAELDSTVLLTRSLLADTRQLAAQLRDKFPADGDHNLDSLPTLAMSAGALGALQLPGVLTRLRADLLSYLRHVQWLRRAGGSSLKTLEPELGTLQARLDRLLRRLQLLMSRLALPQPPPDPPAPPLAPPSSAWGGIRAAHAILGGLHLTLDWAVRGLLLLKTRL

murine IL-11 [3] = target: T3, murine IL-11 (mouse, UniProt P47873 22-199); assay: cell-based or functional assay
T3 sequence: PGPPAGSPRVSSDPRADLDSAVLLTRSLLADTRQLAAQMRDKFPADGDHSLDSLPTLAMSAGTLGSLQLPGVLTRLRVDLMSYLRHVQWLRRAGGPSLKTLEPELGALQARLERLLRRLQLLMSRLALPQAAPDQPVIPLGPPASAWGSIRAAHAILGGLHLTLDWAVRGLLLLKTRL

cynomolgus IL-11 [4] = target: T4, cynomolgus IL-11 (cynomolgus, UniProt P20808 22-199); assay: cell-based or functional assay
T4 sequence: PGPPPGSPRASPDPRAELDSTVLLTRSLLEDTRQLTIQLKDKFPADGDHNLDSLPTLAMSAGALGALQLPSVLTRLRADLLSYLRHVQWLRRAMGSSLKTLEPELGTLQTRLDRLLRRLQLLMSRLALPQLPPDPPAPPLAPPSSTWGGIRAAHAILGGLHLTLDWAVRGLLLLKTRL

rat IL-11 [5] = target: T1, rat IL-11; assay: SPR 37 C, antibody captured, IL-11 as analyte
Method: (§1) To assess the binding kinetics and affinity of anti-IL-11 antibodies as well as their species cross-reactivity profile, binding assays were conducted using surface plasmon resonance (SPR). Binding assays were performed on a Biacore T200 instrument or on a Biacore 8K+ instrument (Cytiva) at 37° C. using assay buffer HBS EP+, 300 mM NaCl, 1 mg/ml BSA, 0.05% NaN3. Antibodies were captured either via anti-human Fc IgGs (“Human antibody capture kit”, Order No. BR100839, Cytiva) or via anti-mouse Fc IgGs (“Mouse antibody capture kit, Order No. BR100383, Cytiva) covalently amine coupled to a Series S CM5 sensor chip (Cytiva) depending on the isotype. The amine coupling was carried out according to the manufacturer's instructions using 1-ethyl-3-(3-dimethylaminopropyl) carbodiimide hydrochloride (EDC), N-hydroxysuccinimide (NHS) and ethanolamine HCl, pH 8.5 (“Amine Coupling Kit” BR-1000-50, Cytiva.). Human, mouse, cynomolgus or rat IL-11 was used as analyte at several dilutions within the concentration range from 0.05-200 nM. For binding assays with only one concentration 200 nM IL-11 was used. The sensor surface was regenerated with glycine pH 1.7 after each antigen injection. Obtained sensorgrams were double referenced (subtraction of reference flow cell signal and buffer injection) and were fitted to a 1:1 Langmuir binding model to derive kinetic data using the Biacore T200 Evaluation software or the Biacore Insight software. If no value is reported, there was either no binding or very low binding and multiphasic binding behavior. Values below 1E-12 were considered to be below the dynamic range of the instrument and set to <1E-12.

human IL-11 [6] = target: T2, human IL-11; assay: SPR 37 C, antibody captured, IL-11 as analyte
Method: as §1

murine IL-11 [7] = target: T3, murine IL-11; assay: SPR 37 C, antibody captured, IL-11 as analyte
Method: as §1

cynomolgus IL-11 [8] = target: T4, cynomolgus IL-11; assay: SPR 37 C, antibody captured, IL-11 as analyte
Method: as §1

human IL-11 [9] = target: T2, human IL-11; assay: Di-complex ELISA, competitor murine IL11RA-Fc on coated IL-11
murine IL-11 [10] = target: T3, murine IL-11; assay: as above

B1: TPP-29536 (antibody, human IgG1, lambda)
heavy: EVQLLESGGGLVQPGGSLRLSCAASGFTFSSYGMHWVRQAPGKGLEWVAVISYDGSYKYYADSVKGRFTISRDNSKNTLYLQMNSLRAEDTAVYYCAAGVPDYWGQGTLVTVSSASTKGPSVFPLAPSSKSTSGGTAALGCLVKDYFPEPVTVSWNSGALTSGVHTFPAVLQSSGLYSLSSVVTVPSSSLGTQTYICNVNHKPSNTKVDKKVEPKSCDKTHTCPPCPAPPVAGPSVFLFPPKPKDTLMISRTPEVTCVVVGVSHEDPEVKFNWYVDGVEVHNAKTKPREEQYNSTYRVVSVLTVLHQDWLNGKEYKCKVSNKQLPSPIEKTISKAKGQPREPQVYTLPPSRDELTKNQVSLTCLVKGFYPSDIAVEWESNGQPENNYKTTPPVLDSDGSFFLYSKLTVDKSRWQQGNVFSCSVMHEALHNHYTQKSLSLSPGK
light: QSVLTQPPSASGTPGQRVTISCSGSSSNIGSDYDVHWYQQLPGTAPKLLIYSNEERPSGVPDRFSGSKSGTSASLAISGLRSEDEADYYCSAWDSSLSGPVFGGGTKLTVLGQPKAAPSVTLFPPSSEELQANKATLVCLISDFYPGAVTVAWKADSSPVKAGVETTTPSKQSNNKYAASSYLSLTPEQWKSHRSYSCQVTHEGSTVEKTVAPTECS
notes: hIgG-lambda-HS (human IgG1 with Fc-silencing mutations)
RGA Efficacy (%) (rat IL-11 [1]): 90.9%
RGA IC50 (rat IL-11 [1]): 1.3 nM
RGA Efficacy (%) (human IL-11 [2]): 85.1%
RGA IC50 (human IL-11 [2]): 1.2 nM
RGA Efficacy (%) (murine IL-11 [3]): 97.2%
RGA IC50 (murine IL-11 [3]): 1.4 nM
RGA Efficacy (%) (cynomolgus IL-11 [4]): 89.7%
RGA IC50 (cynomolgus IL-11 [4]): 1 nM
Kd (rat IL-11 [5]): 0.25 nM
Kd (human IL-11 [6]): 0.18 nM
Kd (murine IL-11 [7]): 0.13 nM
Kd (cynomolgus IL-11 [8]): 0.24 nM
Efficacy (%) (human IL-11 [9]): 37.6%
IC50 (human IL-11 [9]): 0.88 nM
Efficacy (%) (murine IL-11 [10]): 42.2%
IC50 (murine IL-11 [10]): 0.55 nM

B2: TPP-30003 (antibody, human IgG1, lambda)
heavy: QVQLVESGGGVVQPGRSLRLSCAASGFTFSHYDMHWVRQAPGKGLEWVAVISYEGSVKFYADSVKGRFTISRDNSKNTLYLQMNSLRAEDTAVYYCARTPGFHFDYWGQGTLVTVSSASTKGPSVFPLAPSSKSTSGGTAALGCLVKDYFPEPVTVSWNSGALTSGVHTFPAVLQSSGLYSLSSVVTVPSSSLGTQTYICNVNHKPSNTKVDKKVEPKSCDKTHTCPPCPAPPVAGPSVFLFPPKPKDTLMISRTPEVTCVVVGVSHEDPEVKFNWYVDGVEVHNAKTKPREEQYNSTYRVVSVLTVLHQDWLNGKEYKCKVSNKQLPSPIEKTISKAKGQPREPQVYTLPPSRDELTKNQVSLTCLVKGFYPSDIAVEWESNGQPENNYKTTPPVLDSDGSFFLYSKLTVDKSRWQQGNVFSCSVMHEALHNHYTQKSLSLSPGK
light: QSVLTQPPSASGTPGQRVTISCSGSSSNIGSNYVNWYQQLPGTAPKLLIYYDDLRPSGVPDRFSGSKSGTSASLAISGLRSEDEADYYCSAWDDSLSGVVFGGGTKLTVLGQPKAAPSVTLFPPSSEELQANKATLVCLISDFYPGAVTVAWKADSSPVKAGVETTTPSKQSNNKYAASSYLSLTPEQWKSHRSYSCQVTHEGSTVEKTVAPTECS
notes: hIgG1, Lambda (HS variant)
RGA Efficacy (%) (rat IL-11 [1]): 99.5%
RGA IC50 (rat IL-11 [1]): 0.72 nM
RGA Efficacy (%) (human IL-11 [2]): 100%
RGA IC50 (human IL-11 [2]): 1.8 nM
RGA Efficacy (%) (murine IL-11 [3]): 97.1%
RGA IC50 (murine IL-11 [3]): 0.75 nM
RGA Efficacy (%) (cynomolgus IL-11 [4]): 97.1%
Kd (rat IL-11 [5]): 0.0067 nM
Kd (human IL-11 [6]): < 0.001 nM
Kd (murine IL-11 [7]): < 0.001 nM
Kd (cynomolgus IL-11 [8]): 0.49 nM
Efficacy (%) (human IL-11 [9]): 8.4%
Efficacy (%) (murine IL-11 [10]): 4.1%

B3: TPP-29680 (antibody, human IgG1, lambda)
heavy: QVQLVESGGGVVQPGRSLRLSCAASGFTFSHYDMHWVRQAPGKGLEWVAVISYHGSVKFYADSVKGRFTISRDNSKNTLYLQMNSLRAEDTAVYYCARTPGFHFDYWGQGTLVTVSSASTKGPSVFPLAPSSKSTSGGTAALGCLVKDYFPEPVTVSWNSGALTSGVHTFPAVLQSSGLYSLSSVVTVPSSSLGTQTYICNVNHKPSNTKVDKKVEPKSCDKTHTCPPCPAPPVAGPSVFLFPPKPKDTLMISRTPEVTCVVVGVSHEDPEVKFNWYVDGVEVHNAKTKPREEQYNSTYRVVSVLTVLHQDWLNGKEYKCKVSNKQLPSPIEKTISKAKGQPREPQVYTLPPSRDELTKNQVSLTCLVKGFYPSDIAVEWESNGQPENNYKTTPPVLDSDGSFFLYSKLTVDKSRWQQGNVFSCSVMHEALHNHYTQKSLSLSPGK
light: QSVLTQPPSASGTPGQRVTISCSGSSSNIGSNYVSWYQQLPGTAPKLLIYYDDLRPSGVPDRFSGSKSGTSASLAISGLRSEDEADYYCSAWDDSLSGVVFGGGTKLTVLGQPKAAPSVTLFPPSSEELQANKATLVCLISDFYPGAVTVAWKADSSPVKAGVETTTPSKQSNNKYAASSYLSLTPEQWKSHRSYSCQVTHEGSTVEKTVAPTECS
notes: hIgG1, Lambda (HS variant)
RGA Efficacy (%) (rat IL-11 [1]): 98.5%
RGA IC50 (rat IL-11 [1]): 1.1 nM
RGA Efficacy (%) (human IL-11 [2]): 98.4%
RGA IC50 (human IL-11 [2]): 1.5 nM
RGA Efficacy (%) (murine IL-11 [3]): 96.2%
RGA IC50 (murine IL-11 [3]): 0.66 nM
RGA Efficacy (%) (cynomolgus IL-11 [4]): 97.5%
RGA IC50 (cynomolgus IL-11 [4]): 0.29 nM
Kd (rat IL-11 [5]): 0.009 nM
Kd (human IL-11 [6]): 0.0016 nM
Kd (murine IL-11 [7]): < 0.001 nM
Kd (cynomolgus IL-11 [8]): 0.35 nM
Efficacy (%) (human IL-11 [9]): 12.2%
Efficacy (%) (murine IL-11 [10]): 8.6%

B4: TPP-30001 (antibody, human IgG1, lambda)
heavy: QVQLVESGGGVVQPGRSLRLSCAASGFTFSHYDMHWVRQAPGKGLEWVAVISYEGSNKFYADSVKGRFTISRDNSKNTLYLQMNSLRAEDTAVYYCARTPGFHFDYWGQGTLVTVSSASTKGPSVFPLAPSSKSTSGGTAALGCLVKDYFPEPVTVSWNSGALTSGVHTFPAVLQSSGLYSLSSVVTVPSSSLGTQTYICNVNHKPSNTKVDKKVEPKSCDKTHTCPPCPAPPVAGPSVFLFPPKPKDTLMISRTPEVTCVVVGVSHEDPEVKFNWYVDGVEVHNAKTKPREEQYNSTYRVVSVLTVLHQDWLNGKEYKCKVSNKQLPSPIEKTISKAKGQPREPQVYTLPPSRDELTKNQVSLTCLVKGFYPSDIAVEWESNGQPENNYKTTPPVLDSDGSFFLYSKLTVDKSRWQQGNVFSCSVMHEALHNHYTQKSLSLSPGK
light: QSVLTQPPSASGTPGQRVTISCSGSSSNIGSNYVSWYQQLPGTAPKLLIYYDDLRPSGVPDRFSGSKSGTSASLAISGLRSEDEADYYCSAWDDSLSGVVFGGGTKLTVLGQPKAAPSVTLFPPSSEELQANKATLVCLISDFYPGAVTVAWKADSSPVKAGVETTTPSKQSNNKYAASSYLSLTPEQWKSHRSYSCQVTHEGSTVEKTVAPTECS
notes: hIgG1, Lambda (HS variant)
RGA Efficacy (%) (rat IL-11 [1]): 98.9%
RGA IC50 (rat IL-11 [1]): 2.1 nM
RGA Efficacy (%) (human IL-11 [2]): 96.5%
RGA IC50 (human IL-11 [2]): 1.3 nM
RGA Efficacy (%) (murine IL-11 [3]): 101%
RGA IC50 (murine IL-11 [3]): 0.93 nM
RGA Efficacy (%) (cynomolgus IL-11 [4]): 56.6%
RGA IC50 (cynomolgus IL-11 [4]): 5.6 nM
Kd (rat IL-11 [5]): 1.1 nM
Kd (human IL-11 [6]): 0.064 nM
Kd (murine IL-11 [7]): 0.055 nM
Efficacy (%) (human IL-11 [9]): 5.2%
Efficacy (%) (murine IL-11 [10]): 10.1%
